Among the data in the RNAGym collection of RNA variant scans (doi:10.1093/nar/gkz1192) are self-cleavage values, retold here.

Read counts are not given, so values of variants with three or more changes are uncertain.

B1: CPEB3 Ribozyme (parent)
chain: UAACAGGGGGCCACAGCAGAAGCGUUCACGUCGCAGCCCCUGUCAGAUUCUGGUGAAUCUGCGAAUUCUGCUGUAUAUCUC

The data set covers variants of B1. The experiment in a line: self-cleavage, relative activity (ratio to wild type); higher = more cleavage; in vitro, sequencing. The method in brief:
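CPEB3 self-cleaving ribozyme mutant libraries were made by rounds of error-prone PCR, barcoded, and transcribed in vitro with T7 RNA polymerase for 5 hours at 37°C. Cleavage occurred during transcription and a 15 min DNase I step before EDTA stop. RNAs were reverse transcribed with template switching and Illumina-sequenced, with DNA sequencing mapping barcodes to variants. Relative activity is the variant's cleaved/total read fraction divided by wild type's (minimum 5 reads), averaged across three batches.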
As to U31C A45C U54G A64U U74C U76A, the self-cleavage stood at 0.18.

For U31C C34U C37A U60G, the self-cleavage amounted to 0.07. The same measure for U31C A57G U60C: 0.27; for U31C U41C U74A U76C: 1.23. The same measure for U31C G36C A47G G53A A65U: 0.12; for U31A U60C U80C: 0.14. Regarding U31C A35U A45G U78C, the self-cleavage stood at 0.1. U31C A35G U80C: the self-cleavage amounted to 1.3. For U31C A45G U51C U54C the value was 0.36.

For U31C G36U U43C G46C A64U, the self-cleavage came out at 0.12. U31C C32U A45U U54C U78C: the self-cleavage was 0.04. For U31C C39U U49C the value was 0.24; for U31C A35C U51C, 0.54. With U31C G63C U67C, the self-cleavage stood at 0.12. The same measure for U31A U54C U80C: 0.56. On to U31A U51C A57G U72C, for which the self-cleavage came to 0.35. For U31A U69C U78C the value was 0.23. Regarding U31C A47G C59A, the self-cleavage came to 0.11. For U31C A45G U54A U60C U74C the value was 0.98; for U31C C59U U69C A75G, 0.28.

As to U31C A35U U41A U78A, the self-cleavage was determined as 0.09. U31C C39A U60C: the self-cleavage came to 0.09. For U31C A45U G52A A64G G70A the value was 0.14. Regarding U31C A35U U41G U43C U49C U66A U72C, the self-cleavage was determined as 0.15.

For U31C A77G U78A, the self-cleavage turned out to be 0.87. As for U31C A57G A64U, the self-cleavage worked out at 0.18.

U31C A64C A65G U80A: the self-cleavage is 0.09. The same measure for U31C C50A A57C: 0.31. As to U31A U54A A65U A77C, the self-cleavage worked out at 0.12. Take U31C C37U U49A U60C U69C: the self-cleavage came to 0.1.

With U31C G33A U41A A64G, the self-cleavage stood at 0.16.

As for U31C A47C U51A U80C, the self-cleavage is 0.24.

Turning to U31C C71G C79A, the self-cleavage amounted to 0.17. The same measure for U31A U69A U74C: 0.44; for U31A U54A U69C U72C U80C: 0.13; for U31C C40U U48C A56G A57U: 0.15.

Regarding U31C A45U U51G U66A, the self-cleavage is 0.11. In the case of U31C A57G U72C A77U, the self-cleavage came to 0.93. For the variant U31C A57C U58C, the self-cleavage came out at 0.14. The same measure for U31C A45U U60A: 0.93; for U31C A47G U48A: 0.31; for U31C G33A A56U: 0.15. The same measure for U31C U41C G53A: 0.74. Take U31C G42A A47G A57C A75G: the self-cleavage was determined as 0.04.

Regarding U31C G33A U58A U72C, the self-cleavage was 0.1. On to U31C G36A U67C A75U, for which the self-cleavage is 0.05.

U31C A47G G53A U72A: the self-cleavage was 0.34. On to U31C U41C U43C U78C, for which the self-cleavage was determined as 0.3.

U31C G52C A56G U78C: the self-cleavage turned out to be 0.29. On to U31A U51C U58A, for which the self-cleavage amounted to 0.19.

Regarding U31A U54A U69A, the self-cleavage was 0.22. The same measure for U31C A45G A56G G63C: 0.3; for U31C A45G G63U U67C: 0.13. As for U31A U72C A75G, the self-cleavage amounted to 0.84. For U31C A35G A45U U80A, the self-cleavage came out at 1.07. For U31C C39G U41A the value was 0.24. Regarding U31C A35U A45G, the self-cleavage came to 0.17.

U31C A45G A64G: the self-cleavage is 0.14. Regarding U31C U41A U80G, the self-cleavage amounted to 0.11. The same measure for U31C G33A A45U U80C: 0.37; for U31C A56G A65U U69A U72A: 0.08; for U31C U41C U54C A56U: 0.19.

As for U31C C40U U60A U69C, the self-cleavage turned out to be 0.11.

Regarding U31C A64U U72C, the self-cleavage was 0.16. The same measure for U31C G36C G53A U74A: 0.09.

As to U31C A45U U69C, the self-cleavage is 0.43.

For U31C A45G A56G U66A, the self-cleavage was 0.1.

With U31A U54G C59U A64U U80C, the self-cleavage came out at 0.11.

Take U31C A47U U60C: the self-cleavage was determined as 0.08. For U31C C38A A57G, the self-cleavage is 0.07. For U31C A35C U51A A57G G70C C71A, the self-cleavage stood at 0.17. As to U31C U41C A64C, the self-cleavage was determined as 0.45. For U31C G33A A35U U41A U48C C71A the value was 0.07; for U31C A45C U58C U72C G73C, 0.16. For U31C A35G U49C A56G U72C the value was 1.31; for U31C C32U U41C U60A U69C, 0.08; for U31C A56G A57U U78C, 0.18. As for U31C G33A U49A U58C, the self-cleavage worked out at 0.13. U31C A45C A56U U69C: the self-cleavage turned out to be 0.09. The same measure for U31C A56U U67C: 0.15; for U31C A35G A45C U58C A77U: 0.13; for U31C C71U U72C: 0.16. The same measure for U31C A35G C39U U54C: 1.26.
